Reference: PubChem BioAssay AID504706 (National Center for Advancing Translational Sciences (NCATS), 2011)
Among all 320,000 compounds or so, about 200 (0.062%) were called active. Inconclusive results, whose numbers are uncertain, are shown with a selection of clear calls. The call rests on the fitted dose curve; in most records, active means well fitted activation curve with a large enough effect; inconclusive means small, poorly fitted or top-dose-only effect; inactive means no such curve, though single readings can be large or run the other way. No potency is given beside an inconclusive call; the fits are too rough.

assay: qHTS assay for re-activators of p53 using a Luc reporter; conditions: H1299 p53-A138V BP100-luciferase reporter, luminescence, 24 h; series mostly up to 92.2 µM; further: nearly all actives have a fitted effect of over 45% in size
Outline: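 p53-null H1299 cells stably carrying temperature-sensitive p53-A138V and a BP100-luciferase reporter were pinned with compounds (4-point, 1:5 series) and held 24 hrs at 37 deg C. Luminescence was read 10 min after detection reagent.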
Potency means the concentration at half of the fitted maximal effect; tags describe the fitted curve by direction and shape.

Structure (SMILES) | Potency
COCCC(=O)N1CCC(Oc2ccc(C(=O)N(C)CCCC3CCCC3)cc2)CC1 | inconclusive [activator, partial curve, poor fit]
O=S1(=O)CCC(N=Cc2cc(Br)ccc2O)C1 (stereo not drawn) | inactive
Cc1cc(C)cc(NC2=C(N)C(=O)c3ccccc3C2=O)c1 | inconclusive [activator, partial curve, poor fit]
CCOc1ccc(NC(=S)Nc2cccc3ccccc23)cc1 | inconclusive [activator, partial curve, poor fit]
Cc1ccc(NC(=O)c2cc3cccc([N+](=O)[O-])c3[nH]2)cc1 | inconclusive [activator, full curve, poor fit]
COc1ccc2oc(=O)c(-c3nc4ccccc4o3)cc2c1 | inconclusive [activator, partial curve, poor fit]
CC(=O)c1cccc(NC(=O)c2ccc(-c3ccccc3[N+](=O)[O-])o2)c1 | inconclusive [activator, partial curve, poor fit]
CCCCOc1cccc(-c2nnc(N)s2)c1 | inconclusive [activator, single point]
CCOC(=O)c1ccc2nc3c(cc2c1)CCS3 | inconclusive [activator, partial curve, poor fit]
CN(C)S(=O)(=O)c1cccc(NC(=O)CCCSc2ccccc2)c1 | inactive
COc1ccc(/C(N)=N/OC(=O)CC2CCCCC2)cc1 | inconclusive [activator, single point]
O=C(CS(=O)(=O)c1ccccc1)c1ccc2c(c1)OCCO2 | inconclusive [activator, full curve]
CCc1ccc(C(=O)NNC(=S)Nc2ccc(S(N)(=O)=O)cc2)s1 | inactive
O=C(NCCc1ccccn1)c1ccc(COc2ccccc2)o1 | inconclusive [activator, full curve, poor fit]
O=C(COc1ccc(Br)cc1)NC1CC1 | inconclusive [activator, single point]
O=C(N/N=C/c1cn(-c2ccccc2)nc1-c1cccs1)c1ccc(Cl)cc1 | inactive
O=C(c1ccc2c(=O)n3c(nc2c1)CCCCC3)N1CCN(c2ccc(F)cc2)CC1 | inactive
CC(=O)c1ccc(NC(=S)N2CCCC(C(F)(F)F)C2)cc1 (stereo not drawn) | inactive
CC(C)CCNC(=O)C1c2ccccc2Oc2ccccc21 | inconclusive [activator, partial curve, poor fit]
Cc1ccc(C)c(NS(=O)(=O)c2c(C)nc3sccn3c2=O)c1 | inactive
O=C(NC(=S)Nc1nc2ccccc2s1)c1ccco1 | inconclusive [activator, full curve, poor fit]
CC(=O)c1c(C)[nH]c(C(=O)N2CCN(c3ccc(F)cc3)CC2)c1C | inactive
CSc1ccc(CN(C)CCc2ccccn2)cc1 | inconclusive [activator, single point]
CC1(C)CC(=O)C=C(c2ccc(Oc3ccccc3)cc2)C1 | inconclusive [activator, partial curve, poor fit]
CSc1ncccc1C(=O)Nc1ccc2c(c1)OCCO2 | inactive

Structure (SMILES) | Potency
COc1ccccc1NC(=O)Nc1ccc2c(c1)nnn2C | inactive
C=C(C)COc1ccc2c(C)c(CC(=O)N3C[C@H]4C[C@@H](C3)c3cccc(=O)n3C4)c(=O)oc2c1C | inactive
COc1cccc2sc(Nc3nnc(-c4ccccc4Cl)o3)nc12 | inconclusive [activator, full curve, poor fit]
Cc1cccc(/C(N)=N/OC(=O)CCC2CCCCC2)c1 | inconclusive [activator, partial curve, poor fit]
CS(=O)(=O)c1ccccc1C(=O)Nc1cccc(-c2nc3ccccc3o2)c1 | inconclusive [activator, single point]
Cc1nn(-c2ccccc2)c(C)c1NC(=O)CCl | inconclusive [activator, partial curve, poor fit]
Cc1ccc(C(=O)N2CCC(C(=O)Nc3cccc([N+](=O)[O-])c3)CC2)cc1 | inconclusive [activator, single point]
CC1=Nc2ccccc2N=C(NC(=O)/C=C/C(=O)O)C1c1ccccc1 (stereo not drawn) | inconclusive [activator, full curve, poor fit]
Cc1ccccc1CNC(=O)C(=O)NCC1OCCCN1S(=O)(=O)c1cccs1 (stereo not drawn) | inactive
CCc1n[nH]c(=S)n1/N=C/c1ccc(N(C)c2ccccc2)cc1 | inactive
C1=C(c2ccccc2)Nc2nnnn2C1c1cccs1 (stereo not drawn) | inconclusive [activator, single point]
O=C(Nc1ccnn1C1CCN(Cc2ccc(OC(F)F)cc2)CC1)C1CCCC1 | inconclusive [activator, single point]
Cc1cccc(NC(=O)c2ccc(OC3CSC3)cc2)c1 | inconclusive [activator, full curve]
Cc1ccc(Nc2nc(-c3ccncc3)nc3ccccc23)cc1 | inactive
Cc1ccc(-n2ncc(Cl)c2C(=O)NC2CC2)cc1 | inactive
COc1ccc(-c2nc(CN3CCN(Cc4ccccc4)CC3)c(C)o2)cc1 | inconclusive [activator, partial curve, poor fit]
CC(=O)Nc1ccc(/C=C/C(=O)c2ccc3c(c2)OCCO3)cc1 | inconclusive [activator, partial curve, poor fit]
CCCn1c(=O)c(C(=O)Nc2cccc(C)n2)c(O)c2ccccc21 | inconclusive [activator, single point]
Cc1nc(Nc2ccc(F)cc2)[nH]c(=O)c1CCC(C)C | inactive
Cc1ccc(NC(=S)N2CCCC2)cc1C | inactive
COc1ccc(-n2c(C)cc(C(=O)CN3C(=O)c4ccccc4C3=O)c2C)cc1 | inconclusive [activator, single point]
O=C(N/N=C/C=C\c1ccccc1[N+](=O)[O-])c1cccs1 | inconclusive [activator, partial curve, poor fit]
O=C(NCCN1CCCCC1)Nc1ccc(F)c(Cl)c1 | inconclusive [activator, single point]
Nc1c(C(=O)NC2CCCCC2)nsc1C(=O)OCC(=O)NC1CCCCC1 | inconclusive [activator, single point]
O=C(COC(=O)c1ccccc1Nc1ccccc1)c1ccccc1 | inactive

Structure (SMILES) | Potency
O=C(CC1S/C(=N/N=C/C=C/c2ccccc2)NC1=O)Nc1ccc(C(=O)O)cc1 (stereo not drawn) | inactive
O=C(Nc1ccc2c(c1)CCC2)C1COc2ccccc2O1 (stereo not drawn) | inconclusive [activator, single point]
O=C(NC1CC(=O)N(c2ccc(Cl)cc2)C1)N1CCN(C(=O)c2ccco2)CC1 (stereo not drawn) | inactive
Cc1ccc(C)c(N2CCN(C(=O)CCc3nc(-c4cccc(Cl)c4)no3)CC2)c1 | inconclusive [activator, partial curve, poor fit]
Cc1ccc(-n2c(C)cc(C(=O)COc3cccnc3[N+](=O)[O-])c2C)cc1 | inconclusive [activator, full curve, poor fit]
O=C(O)CCC(=O)Nc1ccc(C(=O)OCC(=O)c2ccc(Cl)cc2Cl)cc1 | inactive
Cc1ccc2oc(/N=C(\N)NC(=O)C(C)(C)C)nc2c1 | inactive
O=C(CSc1nc2scc(-c3ccccc3)c2c(=O)[nH]1)Nc1ccccc1 | inactive
O=C(O)c1c2c(nc3ccccc13)/C(=C/c1ccccc1[N+](=O)[O-])CCC2 | inactive
O=C(c1ccco1)[C@@H]1[C@@H]2C(=O)N(c3ccccc3)C(=O)[C@@H]2C2c3ccccc3C=CN21 (stereo partly drawn) | inactive
CNc1c(N)c(=O)oc2ccccc12 | inconclusive [activator, partial curve, poor fit]
Cc1ccc(CSc2nc3c(c(N(C)C)n2)CCCC3)cc1 | inactive
COC(=O)C(Cc1ccc(O)cc1)NC(=O)C(C)NC(=O)c1ccc(C(C)(C)C)cc1 (stereo not drawn) | inactive
O=C(/C=C/c1ccccc1[N+](=O)[O-])OCC(=O)c1ccccc1 | inactive
CCOc1ccc2oc(C(=O)Nc3ccc4c(c3)OCO4)c(C)c2c1 | inconclusive [activator, full curve, poor fit]
Cc1cc(NC(=O)CSc2cn(CCNC(=O)c3ccc(F)cc3)c3ccccc23)no1 | inactive
COc1ccc(/C=C/c2nc3ccccc3n2Cc2ccc(OC)c(OC)c2)cc1 | inconclusive [activator, partial curve, poor fit]
CSc1ccccc1-c1nnc(-c2ccc(C)cc2)o1 | inactive
Cc1ccc(NC(=O)c2ccc(OC(=O)c3ccco3)cc2)cc1 | inconclusive [activator, partial curve, poor fit]
Oc1ccccc1-c1cc(-c2ccc3c(c2)OCCO3)n[nH]1 | inconclusive [activator, full curve, poor fit]
O=C(C[n+]1ccccc1)N/N=C/c1ccc(Cl)c(Cl)c1 | inactive
CN1CCN(/N=C/c2ccc(-c3ccccc3)cc2)CC1 | inconclusive [activator, partial curve, poor fit]
CC(=O)c1ccc(NC(=O)CN2CCCC2)cc1 | inconclusive [activator, single point]
